# Test results from a collection of fitness landscapes (doi:10.1016/j.celrep.2020.107928).
# Whole data set: some 81,000 sequences, median “one-hybrid fitness for binding NBS DNA” near -0.1, cut for the highest 2% near 0.36. The list shows a part of the results.
# B1: Caulobacter ParB omega fusion; a variant is named by its letters at X, in order, B8GW30 (parent)
# chain: MESVVVGEPGMSEGRRGLGRGLSALLGEVDAAPAQAPGEQLGGSREAPIEILQRNPDQPRRTFREEDLEDLSNSIREKGVLQPILVRPSPDTAGEYQIVAGERAWRAAQRAGLKTVPIMVRELDDLAVLEIGIIENVQRADLNVLEEALSYKVLMEKFERTQENIAQTIGKSXSHVANXMRLLXLPDEVQSYLVSGELTAXHARAIAAAADPVALAKQIIEGGLSVRETEALARKAPNLSAGKSKGGRPPRVKDTDTQALESDLSSVLGLDVSIDHRGSTGTLTITYATLEQLDDLCNRLTRGI
# Variants of: B1
# Assay: one-hybrid fitness for binding NBS DNA (the Noc-binding site; scaled: cognate 1, non-cognate 0); higher = stronger binding
# Details: with NBS DNA site
# Outline: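 In E. coli USO, a HIS3 reporter with its site placed 19 bp from the promoter was used to select Caulobacter ParB variants randomised at four specificity codons. Growth lasted 48 hours at 37°C on histidine-free M9 containing 0.1 mM IPTG and 5 mM 3-AT. Fitness was taken as the log change in variant-to-wild-type read ratio from Illumina sequencing of pre- and post-selection plasmids, rescaled between the non-cognate and cognate sites.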
row,Variant,one-hybrid fitness for binding NBS DNA
1,DMYT,≤ 0.2
2,LEAP,≤ 0.2
3,WDFS,≤ 0.2
4,RQPI,≤ 0.2
5,PICT,≤ 0.2
6,QYEL,≤ 0.2
7,PEIA,≤ 0.2
8,GPPW,≤ 0.2
9,NYMV,≤ 0.2
10,QDTV,≤ 0.2
11,NQSM,≤ 0.2
12,SSLL,≤ 0.2
13,HTWA,≤ 0.2
14,KLTS,≤ 0.2
15,GRQR,≤ 0.2
16,RRTV,0.286
17,CPRM,≤ 0.2
18,ADIL,≤ 0.2
19,MSNT,≤ 0.2
20,CKHA,≤ 0.2
21,PVCL,≤ 0.2
22,FGTG,≤ 0.2
23,TQHT,≤ 0.2
24,ITFS,≤ 0.2
25,YNSN,≤ 0.2

row,Variant,one-hybrid fitness for binding NBS DNA
1,RAWY,≤ 0.2
2,NYVG,≤ 0.2
3,QAAN,≤ 0.2
4,ASQL,≤ 0.2
5,TGPS,≤ 0.2
6,YWRS,≤ 0.2
7,FLSI,≤ 0.2
8,RTVC,≤ 0.2
9,INEC,≤ 0.2
10,RTAG,≤ 0.2
11,LGKM,≤ 0.2
12,WGLI,≤ 0.2
13,RWAD,≤ 0.2
14,THLC,≤ 0.2
15,RAAW,≤ 0.2
16,DRIG,≤ 0.2
17,FTES,≤ 0.2
18,KPRC,≤ 0.2
19,TRMI,≤ 0.2
20,PDPM,≤ 0.2
21,YGEM,≤ 0.2
22,AVGC,≤ 0.2
23,RSGC,≤ 0.2
24,RADR,≤ 0.2
25,GKHA,≤ 0.2

row,Variant,one-hybrid fitness for binding NBS DNA
1,SNSF,≤ 0.2
2,QHTG,≤ 0.2
3,MPAG,≤ 0.2
4,DFHP,≤ 0.2
5,CVVR,≤ 0.2
6,DRKM,≤ 0.2
7,TLEG,≤ 0.2
8,DPTG,≤ 0.2
9,AMGY,≤ 0.2
10,ESAL,≤ 0.2
11,LHAH,≤ 0.2
12,FTAR,≤ 0.2
13,KPAR,≤ 0.2
14,LYPP,≤ 0.2
15,CFPV,≤ 0.2
16,HVPN,≤ 0.2
17,MERR,≤ 0.2
18,SKIK,≤ 0.2
19,HDPP,≤ 0.2
20,GLKA,≤ 0.2
21,VQTR,≤ 0.2
22,SAAW,≤ 0.2
23,PYGV,≤ 0.2
24,DVNT,≤ 0.2
25,TRNM,≤ 0.2

row,Variant,one-hybrid fitness for binding NBS DNA
1,NRES,≤ 0.2
2,FGQC,≤ 0.2
3,RFSW,≤ 0.2
4,RNRD,≤ 0.2
5,CITN,≤ 0.2
6,YRRG,≤ 0.2
7,QKAQ,≤ 0.2
8,CIVI,≤ 0.2
9,HYDL,≤ 0.2
10,QWER,≤ 0.2
11,ENWG,≤ 0.2
12,STFF,≤ 0.2
13,NDHS,≤ 0.2
14,HRFE,≤ 0.2
15,RHSI,≤ 0.2
16,NDNV,≤ 0.2
17,ANCF,≤ 0.2
18,KLVS,≤ 0.2
19,PMVT,≤ 0.2
20,FCDG,≤ 0.2
21,DYYN,≤ 0.2
22,PDKY,≤ 0.2
